# Assay results reported in PubChem BioAssay AID2100 (National Center for Advancing Translational Sciences (NCATS), 2009).
# In all, about 300,000 compounds went through this assay and about 1,200 (0.4%) were called active. The shares of active, inactive and inconclusive entries below differ from those in the screen. Calls follow the shape of the dose curve; as a rule, active = well fitted inhibition curve with a large enough effect; inconclusive = small, poorly fitted or top-dose-only effect, or another doubt; inactive = no such curve, though single readings can be large or run the other way. A potency beside an inconclusive call is a rough fit, not a confirmed value.
# Target: Lysosomal alpha-glucosidase (Homo sapiens) (UniProt P10253)
# Assay: qHTS Assay for Inhibitors and Activators of Human alpha-Glucosidase Cleavage of Glycogen;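 as to activity change, negative = inhibition: 0% = full enzyme reaction and -100% = no-enzyme basal signal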
# Details: recombinant GAA, glycogen substrate, Amplex Red glucose oxidase fluorescence; activity change, negative = inhibition: at 76.4 µM (top of the series) unless noted
# In short: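 Recombinant enzyme (4 nM final) with compounds titrated up to 77 uM and bovine liver glycogen (30 ug) in citrate pH 5.0, 0.01% Tween-20, 37 C 40 min. Released glucose detected by Amplex Red/glucose oxidase (Ex 573/Em 610); AC50 from Hill fits.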
# Potency is read from the fitted curve at half-maximal effect.
SMILES,Potency,"activity change, negative = inhibition"
CC1c2ccccc2N(NC(=O)Cc2ccccc2)C1C (configuration not stated),"inconclusive: 12.6 µM [inhibitor, partial curve]",
CCOC(=O)C(=CNNc1ccsc1C(=O)OC)C(=O)OCC,active: 14 µM,
COc1ccc(-c2cnc(N)nc2-c2ccc(OCc3ccccc3)cc2O)cc1,,inactive: -5.54%
O=C(c1ccc([N+](=O)[O-])o1)N1CCc2ccccc21,,inactive: -6.74% [at 76.3 µM]
COc1ccc(NC(=O)CCN2CCN(C/C=C/c3ccccc3)CC2)cc1,"inconclusive: 56.2 µM [inhibitor, single point]",
S=c1nccc(-c2cccs2)[nH]1,"inconclusive: 39.8 µM [inhibitor, partial curve]",
Cc1cccc(CN2CCN(C3CCCC3)C(CCO)C2)n1 (configuration not stated),,inactive: 6.15%
Cn1c(=O)c2nnn(/N=C(\c3ccccc3)C3CC3)c2n(C)c1=O,,inconclusive: 24.7% [activator]
C/C(CC(=O)Nc1ccc(N(C)C)cc1)=N\NC(=O)c1ccncc1,"inconclusive: 14 µM [inhibitor, partial curve]",
N#Cc1cccc(NC(=O)Nc2cccs2)c1,"inconclusive: 12.5 µM [inhibitor, partial curve]",
CCC(C)OC(=O)C1=C(C)O[C@]23OC(N)=C(C#N)[C@]12C(=O)c1ccccc13 (some centres not stated),"inconclusive: 35.5 µM [inhibitor, partial curve]",
S=C1NC2(CCCCC2)NN1c1ccccc1,"inconclusive: 31.6 µM [inhibitor, partial curve]",
CCc1ccc(CCC(=O)Nc2ccc(C)c(C)c2)o1,"inconclusive: 9.92 µM [inhibitor, full curve, poor fit]",
COc1ccccc1Nc1c2c(nc3ccc(NC(=O)c4ccc(N(C)C)cc4)cc13)CCCC2,,inactive: -15% [at 76.3 µM]
CC1=C(C(N)=O)S(=O)(=O)c2ccccc21,,inactive: -3.97%
COc1cc(Nc2nc(-c3ccc(OC)c(OC)c3)nc3ccccc23)cc(OC)c1,,inactive: 2.34% [at 76.3 µM]
CCN(CC)c1ccc2c(c1)CCCN2,"inconclusive: 14.1 µM [inhibitor, partial curve]",
COc1c(Cl)cc(C(=O)NN)cc1Cl,"inconclusive: 22.4 µM [inhibitor, partial curve]",
CN1C=CC2=C(C#N)C(N)C(C#N)(C#N)[C@H](c3ccccc3)[C@H]2C1 (some centres not stated),"inconclusive: 31.4 µM [activator, single point]",
COc1cc(/C=C2\SC(c3ccccc3)=NC2=O)cc(Cl)c1O,"inconclusive: 7.94 µM [inhibitor, full curve]",
Cc1cccc(N2CCN(C(=O)C3CCCN(S(=O)(=O)c4ccc5c(c4)oc(=O)n5C)C3)CC2)c1C (configuration not stated),,inactive: -17% [at 76.3 µM]
Nc1ccc(C(=O)C(=O)c2ccc(N)cc2)cc1,,inactive: -6.88%
Cc1cc2[nH]c(=O)c(=O)[nH]c2cc1S(=O)(=O)N1CCN(c2cccc(C(F)(F)F)c2)CC1,"inconclusive: 7.94 µM [inhibitor, partial curve]",
COc1cc(/C=N/NC(=O)CNC(=O)c2ccco2)ccc1O,"inconclusive: 39.8 µM [inhibitor, partial curve]",

SMILES,Potency,"activity change, negative = inhibition"
O=C(O)c1cc(N/N=C/c2cccs2)ccc1Cl,"inconclusive: 44.7 µM [inhibitor, single point]",
O=C(O)c1ccc(N/N=C/c2ccnc3ccccc23)cc1,"inconclusive: 31.6 µM [inhibitor, partial curve]",
O=C(CCCOc1ccccc1)N1CCN(c2ccccc2)CC1,,inactive: 15.4%
COC(=O)c1c(C)[nH]c(C=Nc2ccc(OC)cc2)c1C,"inconclusive: 28.2 µM [inhibitor, single point]",
c1ccc(OCc2nn3c(Cn4cnc5ccccc54)nnc3s2)cc1,,inactive: -9.06%
COc1ccc(-c2cnc(NCc3cc4c(cc3[N+](=O)[O-])OCO4)n2C)cc1,"inconclusive: 35.5 µM [inhibitor, single point]",
COC(=O)/C(=C\C(=O)c1ccccc1)Nc1ccc(OC)cc1,"inconclusive: 20 µM [inhibitor, partial curve]",
Cc1ccc(C(=O)N/C(=C\c2cn(C)c3ccccc23)C(=O)N2CCOCC2)cc1,"inconclusive: 50.1 µM [inhibitor, single point]",
Cc1ccc(C)c(S(=O)(=O)c2cn(C)c3cc(N4CCCCC4C)c(F)cc3c2=O)c1 (configuration not stated),,inactive: -6.86% [at 76.3 µM]
Cc1cc(NCc2ccccn2)n2ncc(-c3ccccc3)c2n1,,inactive: -7.85%
CCC1CCCCN1CCCNC(=O)c1[nH]c2ccccc2c1Sc1ccc(Cl)cc1 (configuration not stated),"inconclusive: 6.31 µM [inhibitor, partial curve]",
CCc1ccc(/C=N/N2CCN(c3ccccn3)CC2)cc1,"inconclusive: 17.6 µM [inhibitor, partial curve]",
CN(C)c1ccc(O)c2c1CC1CC3[C@@H](N(C)C)C(=O)C(C(N)=O)=C(O)[C@]3(O)C(=O)C1=C2O (some centres not stated),"inconclusive: 39.5 µM [inhibitor, single point]",
COC(=O)c1c(NC(=O)CCCOc2ccc(C(C)(C)C)cc2)sc2c1C(C(=O)OC)CC2 (configuration not stated),,inactive: -11% [at 76.3 µM]
COc1cc(C(c2c(O)cc(C)[nH]c2=O)c2c(O)cc(C)[nH]c2=O)ccc1O,"inconclusive: 3.98 µM [inhibitor, full curve]",
Nc1ccccc1Nc1nc2ccccc2[nH]1,active: 20 µM,
CC(Cl)C(=O)NNc1cccc(Cl)n1 (configuration not stated),"inconclusive: 35.5 µM [inhibitor, partial curve]",
COC(=O)CNC(=O)COC(=O)c1cc(F)c(F)cc1Cl,"inconclusive: 50.1 µM [inhibitor, single point]",
COc1ccc(C2=Nc3ccccc3OC2)cc1,active: 25.1 µM,
O=C(/C=C/c1ccc(Br)cc1)NC(=O)c1ccccc1O,,inactive: -7.54%
CCOc1ccc(C2C(C(=O)OC)=C(C)NC3=C2C(=O)c2ccccc23)cc1OC (configuration not stated),"inconclusive: 3.55 µM [inhibitor, full curve]",
COc1ccc(OCc2ccc(-c3nc(C#N)c(NCc4ccccc4)o3)o2)cc1,"inconclusive: 39.8 µM [inhibitor, partial curve]",
Cc1cccc(NC(=O)NNC(=O)c2sccc2-n2cccc2)c1,"inconclusive: 3.55 µM [inhibitor, full curve]",
CC1OC(OCC2OC(Oc3c(-c4ccc(O)cc4)oc4cc(O)cc(O)c4c3=O)C(O)C(O)C2O)C(O)C(O)C1O (configuration not stated),"inconclusive: 31.6 µM [inhibitor, single point]",

SMILES,Potency,"activity change, negative = inhibition"
CCOC(=O)N1CCN(c2ccccc2OC)CC1,,inactive: 7.53%
CCOC(=O)CNc1c(-c2ccc(Cl)cc2)nc2cnccn12,active: 39.8 µM,
CCn1ccc2cc(OC)ccc2c1=S,,inactive: 3.25%
Cc1cc(Nc2ccccc2)n(-c2ccccc2)n1,active: 12.5 µM,
Cc1ccc(CNc2oc(-c3ccc(COc4ccc(Cl)cc4)o3)nc2C#N)cc1,"inconclusive: 39.8 µM [inhibitor, partial curve]",
O=c1[nH]c(SCc2n[nH]c(=S)n2-c2ccccc2)nc2sc3c(c12)CCC3,"inconclusive: 24.9 µM [inhibitor, single point]",
COc1ccc(-c2nc(SCC(=O)Nc3ccc4c(c3)OCO4)c(-c3ccccc3)[nH]2)cc1,,inactive: 17% [at 76.3 µM]
COc1ccc(C[C@H]2c3cc(O)c(OC)cc3CC[N+]2(C)[O-])cc1O (some centres not stated),"inconclusive: 1.76 µM [inhibitor, full curve, poor fit]",
COC(=O)C1C(=O)C2=C(CC1C)NC(C)=C(C(=O)OC(C)C)C2c1ccc(OC)c(O)c1 (configuration not stated),"inconclusive: 15.8 µM [inhibitor, partial curve]",
COc1ccc(NC(=S)N2CCC(c3nc4ccc(Cl)cc4[nH]3)CC2)c(OC)c1,"inconclusive: 11.1 µM [inhibitor, partial curve]",
CC1=NN(c2ccccc2)C(=O)/C1=C/c1c(O)n(-c2ccc(F)cc2)[nH]c1=O,"inconclusive: 22.4 µM [inhibitor, partial curve]",
CN(C)/C=N/C1=C(C#N)C(c2cccs2)c2ccc3ccccc3c2O1 (configuration not stated),"inconclusive: 20 µM [activator, partial curve]",
C=CCNC(=S)NNC(=O)c1cc(O)ccc1O,"inconclusive: 10 µM [inhibitor, partial curve]",
O=C(Nc1ccc(Br)c2ccccc12)c1ccc2ccccc2c1O,"inconclusive: 11.2 µM [inhibitor, partial curve]",
Nc1cc(S(=O)(=O)Nc2ccccc2Cl)ccc1N1CCCC1,"inconclusive: 31.6 µM [inhibitor, partial curve]",
CCOC(=O)c1c(C)oc2c1c(C=NCc1ccccn1)c(O)c1ccccc12,"inconclusive: 22.2 µM [inhibitor, single point]",
O=C(NC1=NN(c2ccccc2)CC1)Nc1ccccc1F,"inconclusive: 44.7 µM [inhibitor, partial curve]",
CCc1c(C)c2ccc(O)c(CN3CCN(c4ccc(OC)cc4)CC3)c2oc1=O,,inactive: 18.1% [at 76.3 µM]
CCC1(C)Cc2sc3c(=O)[nH]c(=S)[nH]c3c2CO1 (configuration not stated),"inconclusive: 22.2 µM [inhibitor, single point]",
COc1ccc(-c2csc(Nc3ccc(C)cn3)n2)cc1OC,"inconclusive: 50.1 µM [inhibitor, single point]",
COc1cccc(CNc2ccc(S(=O)(=O)Nc3nccs3)cc2)c1O,active: 5.62 µM,
Clc1ccc(OCc2nnc3n2CCCCC3)c(Cl)c1,"inconclusive: 4.47 µM [inhibitor, single point]",
CCN1CCc2nc(NC(=O)Cc3ccc4c(c3)OCCO4)sc2C1,"inconclusive: 44.7 µM [activator, single point]",
O=C(Nc1ccccc1N1CCCC1)c1cccnc1Cl,"inconclusive: 50.1 µM [inhibitor, single point]",
